We go through 34 variants from the RNAGym collection of RNA variant scans (doi:10.1093/nar/gkz1192).

The source gives no read counts; variants with many changes may rest on few reads.

B1: CPEB3 Ribozyme (parent)
chain: UAACAGGGGGCCACAGCAGAAGCGUUCACGUCGCAGCCCCUGUCAGAUUCUGGUGAAUCUGCGAAUUCUGCUGUAUAUCUC

In this data set the parent is B1. In words: self-cleavage, relative activity (ratio to wild type); higher = more cleavage; in vitro, sequencing. The method, boiled down: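 Relative activity was defined as the cleaved/total read fraction for a variant divided by the same fraction for the unmutated ribozyme. CPEB3 self-cleaving ribozyme libraries were made by rounds of error-prone PCR, barcoded, and transcribed in vitro with T7 RNA polymerase for 5 hours at 37°C, and cleavage ran through transcription plus a 15 min DNase I step before EDTA. Illumina sequencing of template-switched reverse transcripts gave the reads, and DNA sequencing mapped the barcodes. Averages come from three batches, using variants with at least 5 reads.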
On to UAACAGGGGGCCACCGCAGGAGCGUUCACGUCGCAGCCCCUGUCAGAUUCUGGUGAAUCUGCGAAUUCCGCUGUAUACCUC [A15C A20G U69C U78C], for which the self-cleavage came out at 0.2. Regarding UAACAGGGGGCCACCGCAGAUGCGUUCACGUCGCAGCCCCUGUCAGAUUCUGGUGAAUCAGCGAAUUCUGCUGUAUACCUC [A15C A21U U60A U78C], the self-cleavage was 0.07. Turning to UAACAGGGGGCCAUAGCAGAAGCGUUCACGUCGCAGCCCCUGUCAGAUUCUGGCGAAUCUGCGGAUUCUGCUGUAUAUCCC [C14U U54C A64G U80C], the self-cleavage is 1.18. Regarding UAACAGGGGGCCAUAGCAGAAGCGUUCACGUCGCAGCCCCCGUCAGAUUCUGGUGAAUCUGCGAAUUCUGCUGUACAUCUC [C14U U41C U76C], the self-cleavage is 1.23. For the variant UAACAGGGGGCCACCGUGGAAGCGUUCACGUCGCAGCCCCUGUCAGAUUCUGGUGAAUCUGCGAAUUCUGCUGUAUAUCUC [A15C C17U A18G], the self-cleavage amounted to 0.1. The figure for UAACAGGGGGCCACCGCAGAGGCGUUCACGUCGCAGCCGCUGUCAGAUUCUGGUGUAUCUGCGAAUUCUGCCGUAUAUCUC [A15C A21G C39G A56U U72C] is 0.25. Turning to UAACAGGGGGCCAUAGCAGAAGCGUUCACGUCGCAGCCCCUGUCAGACUCUGGUGAAUCUGCGAAUUCAGCUGUAUAUCUC [C14U U48C U69A], the self-cleavage worked out at 0.24. Consider UAACAGGGGGCCAUAGCAGAAGCGUUCACGUCGCAGCCCCUGUCAGAUUCCGGUGAAUCUGCGAAUUCUGCGGUAUAUCUC [C14U U51C U72G], for which the self-cleavage came to 1.15.

With UAACAGGGGGCCACCGCUGAGGCGUUCACGUCGCAGCCCCUGUCAGAUUCAGGUGAAUCUGCGAAUUCUGCUCUAUAUCUC [A15C A18U A21G U51A G73C], the self-cleavage stood at 0.38. For the variant UAACAGGGGGCCAUAGCAGAAGCGUUCACGUCGCAGCCCCUGUCAGAUUCUGGUGAAUCUGCGAAUUCGGCCGUAAAUCUC [C14U U69G U72C U76A], the self-cleavage stood at 0.33. Turning to UAACAGGGGGCCACCGCAGAAGUGUUCACGUCGCAGCCCCGGUCAGAUUCUGGUGAAUCUGCGAAUCCUGCUGUUUAUCUC [A15C C23U U41G U67C A75U], the self-cleavage was determined as 0.08. As to UAACAGGGGGCCACCGCUGAAGCGUUCACGUCGCAGCCUCUGUCAGAUUAUGGUGAAUCUGCGAAUUCUGCUGUAUAUCUC [A15C A18U C39U C50A], the self-cleavage turned out to be 0.22. As to UAACAGGGGGCCACCGCAGAAGCGUUCACGUCGCAGCCCCUGUCAGGUUCUGGUGAAUCUGCGAAUUCUGCCGUAUAUCUC [A15C A47G U72C], the self-cleavage is 1.03. As for UAACAGGGGGCCACCGCAGAGGCGUUCACGUCACAGCCCCUGUCAGAUUCUGGUGAAUCUGCGGAUUCUGCUGUAUAUCCC [A15C A21G G33A A64G U80C], the self-cleavage was found to be 0.05. On to UAACAGGGGGCCACCGCAGAUGCGUACCCGUCGCAGCCCCUGUCCGAUUCUGGUGAAUCUGCGAAUUCUGCUUUAUAUCUC [A15C A21U U26A A28C A45C G73U], for which the self-cleavage was 0.06. Regarding UAACAGGGGGCCACCGCAGGAGCGUUCACGUCGCAGCCCCUGUCAGAUUCUGGUGAAUCCGCGAAUUCAGCUGUAUAUCUC [A15C A20G U60C U69A], the self-cleavage worked out at 0.23. As for UAACAGGGGGCCACCGCAGAUGCGCUCACGUCGCAGCCCCUGUCAGAUUCUGGUGGAUCUGCGAAUUCUGCUGUAUAUCUC [A15C A21U U25C A56G], the self-cleavage was determined as 0.54. On to UAACAGGGGGCCACCGCAGAAGUGUUCACGACGCAGCCCCCGCCAGAUUUUGGUGAAUCUGCGAAUUCUGCUGUAUACCUC [A15C C23U U31A U41C U43C C50U U78C], for which the self-cleavage was found to be 0.04. Take UAACAGGGGGCCACCGCAGAAGCGUUCACGUCGCAGCCCCUGUCAGAUUCUGGUGAAUCUGCGGAUUCUGCUGUAUAUCAC [A15C A64G U80A]: the self-cleavage stood at 0.5. On to UAACAGGGGGCCACCGCAGAAGCGUUCAUGUCGCAGCCCCUGUCAGAUUCUGGUGAACCUGCGAAUUCUGCUGUAUAUCUC [A15C C29U U58C], for which the self-cleavage came out at 0.14. On to UAACAGGGGGCCACCGCAGAGGCAUUCACGUCGCAGCCCCUGUCAGAUUCUCGUGAAUCCGCGAAUCCUGCUGUAUAUCUC [A15C A21G G24A G52C U60C U67C], for which the self-cleavage came out at 0.1. Consider UAACAGGGGGCCACCGCAGAAGCGUUCACGUCGCGGCCCCUGUCAGAUUCUGGUGAACCUGCGAAUUCUGCUGUAUAUCUC [A15C A35G U58C], for which the self-cleavage worked out at 0.48.

On to UAACAGGGGGCCAUAGCAGAAGCGUUCACGUCGCAGCCCCAGUCACAUUCUGGUGAAUCUGCGAAUUCUGCUGUAUACCUC [C14U U41A G46C U78C], for which the self-cleavage amounted to 0.13. Take UAACAGGGGGCCACCGCAGAAGCGUUCACGUCGCAGCCCCUGUCAGAUUCUGGUGAAUCUGCGGAUUCUGCUGAAUAUCUC [A15C A64G U74A]: the self-cleavage turned out to be 0.79. As to UAACAGGGGGCCAUAGCAGAAGCGUUCACGUCGCAGCCCCUGUCAGAUUCUGGCGAAUCUGCGAAUCCUGCUGUAUAUCUC [C14U U54C U67C], the self-cleavage was 0.37. On to UAACAGGGGGCCACCGCAGAAGCGUUCGCGUCGCAGCCCCUGUCAGAUUCUGGUGAAUCUGUGAAUUCUGCUGUAUAUCUC [A15C A28G C62U], for which the self-cleavage amounted to 0.09. As to UAACAGGGGGCCACCGCAGUAGCGUUCUCGUCGCAGCCCCAGCCAGGUUCUGGUGAAUCUGCGAAUUCUGCCGUAUAUCUC [A15C A20U A28U U41A U43C A47G U72C], the self-cleavage amounted to 0.06.

Consider UAACAGGGGGCCAUAGCAGAAGCGUUCACGUCGCAGCCCCAGUCAGAUUCUGGUGAACCUGCGAAUUCUGCUGUAUAUCUC [C14U U41A U58C], for which the self-cleavage came out at 0.08. For the variant UAACAGGGGGCCACCGCAGAAGCGUUCUCGUCGCAGCCCCGGUCAGAUUCUGGUGAAUCUGCGAAUUCGGCUGUAUAUCUC [A15C A28U U41G U69G], the self-cleavage amounted to 0.04. As to UAACAGGGGGCCACCGCAGAAGCGUUCACGUCGCAGCCCCUGUCAGAUUCUGGUGGAUCUGCGAUUUCUGCUGUAUAUCUC [A15C A56G A65U], the self-cleavage worked out at 0.19. In the case of UAACAGGGGGCCACCGCAGAAGCGUUCACGUCGCAGCCCCUGUCAGGUUCUGGUGAAUCUGCGAAUUCUGCUGUAUACCUC [A15C A47G U78C], the self-cleavage came out at 1.12. For the variant UAACAGGGGGCCACCGCUGAGGCGUUCACGUCGCAGCCCCUGUCAGAUUCUGGUGAAUCUGCGGAUUCUGCCGUAUAUCUC [A15C A18U A21G A64G U72C], the self-cleavage is 0.37. For UAACAGGGGGCCAUAGCAGAAGCGUUCACGUCGCAGCCCCUGCCAGAUUCUGGUGAUCCUGCGAAUUCUGCUGUAUAUCUC [C14U U43C A57U U58C], the self-cleavage was found to be 0.12.

Regarding UAACAGGGGGCCACCGCAGAAGCGUUCUCGUCGCAGCCCCAGACAGAUUCUGGUGAAUCUGGGAAUUCUGCUGUAUAUCUC [A15C A28U U41A U43A C62G], the self-cleavage worked out at 0.08.
